Source: article PMC10632515
Results are given in words; binding and its absence hold for the method and conditions named. In cells and extracts the contact can be indirect. Some entries that bind do so weakly or less than the wild type. For some of these results: Where a sequence is shown, tags or fusion partners need not be part of it.

By UniProt entry, the sequences of proteins in these tests, tags left out. Where a name states a change or a piece, a line headed by the entry shows the natural chain unless it says otherwise.
UniProt Q969U6: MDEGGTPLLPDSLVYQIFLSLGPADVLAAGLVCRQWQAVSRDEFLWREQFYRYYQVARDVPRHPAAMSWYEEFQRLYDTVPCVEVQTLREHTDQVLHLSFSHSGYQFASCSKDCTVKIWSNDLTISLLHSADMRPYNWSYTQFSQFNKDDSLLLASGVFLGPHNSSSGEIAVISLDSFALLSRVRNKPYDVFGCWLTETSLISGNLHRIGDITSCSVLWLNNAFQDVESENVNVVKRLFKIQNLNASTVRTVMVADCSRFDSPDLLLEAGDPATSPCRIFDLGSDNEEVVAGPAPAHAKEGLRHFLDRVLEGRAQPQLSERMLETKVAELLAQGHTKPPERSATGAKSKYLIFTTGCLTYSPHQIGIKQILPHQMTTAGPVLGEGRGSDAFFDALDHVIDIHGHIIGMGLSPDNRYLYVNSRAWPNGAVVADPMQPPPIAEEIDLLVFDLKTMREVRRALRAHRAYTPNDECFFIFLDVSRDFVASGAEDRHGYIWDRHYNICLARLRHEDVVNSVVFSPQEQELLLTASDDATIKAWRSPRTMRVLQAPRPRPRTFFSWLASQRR
UniProt Q5XUX1: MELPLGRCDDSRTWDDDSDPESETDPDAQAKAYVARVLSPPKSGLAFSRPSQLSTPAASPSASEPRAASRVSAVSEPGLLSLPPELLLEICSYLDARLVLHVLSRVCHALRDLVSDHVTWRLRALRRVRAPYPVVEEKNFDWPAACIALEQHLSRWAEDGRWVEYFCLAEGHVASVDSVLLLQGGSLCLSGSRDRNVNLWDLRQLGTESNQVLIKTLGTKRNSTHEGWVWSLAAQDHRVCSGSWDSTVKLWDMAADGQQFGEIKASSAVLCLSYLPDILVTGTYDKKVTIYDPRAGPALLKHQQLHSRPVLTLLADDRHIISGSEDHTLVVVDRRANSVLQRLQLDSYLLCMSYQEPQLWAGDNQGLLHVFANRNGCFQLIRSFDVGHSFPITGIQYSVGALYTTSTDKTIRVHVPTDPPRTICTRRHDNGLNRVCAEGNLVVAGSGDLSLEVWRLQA
UniProt Q12834: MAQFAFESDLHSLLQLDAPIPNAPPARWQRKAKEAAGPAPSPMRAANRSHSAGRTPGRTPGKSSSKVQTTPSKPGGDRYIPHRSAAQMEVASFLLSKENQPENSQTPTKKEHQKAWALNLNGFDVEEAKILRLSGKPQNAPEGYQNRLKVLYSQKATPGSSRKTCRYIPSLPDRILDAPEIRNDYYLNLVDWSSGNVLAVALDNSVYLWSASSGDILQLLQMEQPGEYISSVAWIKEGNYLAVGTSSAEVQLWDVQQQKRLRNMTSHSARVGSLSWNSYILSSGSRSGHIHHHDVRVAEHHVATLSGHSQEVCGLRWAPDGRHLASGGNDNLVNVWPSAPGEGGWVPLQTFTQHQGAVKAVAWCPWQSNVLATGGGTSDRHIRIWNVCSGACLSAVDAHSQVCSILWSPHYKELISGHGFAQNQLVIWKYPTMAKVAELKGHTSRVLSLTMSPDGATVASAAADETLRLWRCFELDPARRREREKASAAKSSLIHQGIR
UniProt Q969H0: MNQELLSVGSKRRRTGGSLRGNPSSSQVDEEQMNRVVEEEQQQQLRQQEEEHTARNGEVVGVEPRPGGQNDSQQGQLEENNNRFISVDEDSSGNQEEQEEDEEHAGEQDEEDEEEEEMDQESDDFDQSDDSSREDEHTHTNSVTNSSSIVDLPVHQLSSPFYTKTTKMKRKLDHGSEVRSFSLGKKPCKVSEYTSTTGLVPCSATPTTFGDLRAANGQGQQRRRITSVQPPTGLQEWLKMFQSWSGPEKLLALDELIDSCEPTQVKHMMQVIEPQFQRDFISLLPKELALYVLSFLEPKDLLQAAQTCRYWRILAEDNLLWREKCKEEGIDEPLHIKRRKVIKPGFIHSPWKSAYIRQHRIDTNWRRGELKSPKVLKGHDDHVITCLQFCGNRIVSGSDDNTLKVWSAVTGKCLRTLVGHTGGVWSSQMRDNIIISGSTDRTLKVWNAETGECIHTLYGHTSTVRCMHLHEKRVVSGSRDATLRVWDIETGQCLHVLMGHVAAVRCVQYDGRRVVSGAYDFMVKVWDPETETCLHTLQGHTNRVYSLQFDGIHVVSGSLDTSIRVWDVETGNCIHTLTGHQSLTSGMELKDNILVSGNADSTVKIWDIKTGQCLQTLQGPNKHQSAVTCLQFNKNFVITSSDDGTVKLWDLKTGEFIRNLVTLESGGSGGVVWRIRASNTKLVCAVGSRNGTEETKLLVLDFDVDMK
UniProt Q9Y297: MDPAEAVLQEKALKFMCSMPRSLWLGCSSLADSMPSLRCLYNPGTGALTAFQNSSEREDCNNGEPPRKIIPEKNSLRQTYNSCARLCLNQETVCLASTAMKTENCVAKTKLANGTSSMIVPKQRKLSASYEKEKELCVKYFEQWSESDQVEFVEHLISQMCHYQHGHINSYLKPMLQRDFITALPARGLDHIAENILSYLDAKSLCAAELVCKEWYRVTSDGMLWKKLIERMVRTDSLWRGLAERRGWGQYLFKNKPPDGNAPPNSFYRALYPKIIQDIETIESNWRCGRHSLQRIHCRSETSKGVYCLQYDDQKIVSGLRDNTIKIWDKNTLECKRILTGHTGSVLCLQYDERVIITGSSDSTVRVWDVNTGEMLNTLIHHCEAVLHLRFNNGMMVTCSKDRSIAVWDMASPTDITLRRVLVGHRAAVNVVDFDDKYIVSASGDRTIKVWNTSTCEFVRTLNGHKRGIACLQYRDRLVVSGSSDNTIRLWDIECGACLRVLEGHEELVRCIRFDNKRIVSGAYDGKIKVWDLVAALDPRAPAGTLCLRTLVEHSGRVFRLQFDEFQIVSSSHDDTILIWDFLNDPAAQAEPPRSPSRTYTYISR
UniProt Q9UM11: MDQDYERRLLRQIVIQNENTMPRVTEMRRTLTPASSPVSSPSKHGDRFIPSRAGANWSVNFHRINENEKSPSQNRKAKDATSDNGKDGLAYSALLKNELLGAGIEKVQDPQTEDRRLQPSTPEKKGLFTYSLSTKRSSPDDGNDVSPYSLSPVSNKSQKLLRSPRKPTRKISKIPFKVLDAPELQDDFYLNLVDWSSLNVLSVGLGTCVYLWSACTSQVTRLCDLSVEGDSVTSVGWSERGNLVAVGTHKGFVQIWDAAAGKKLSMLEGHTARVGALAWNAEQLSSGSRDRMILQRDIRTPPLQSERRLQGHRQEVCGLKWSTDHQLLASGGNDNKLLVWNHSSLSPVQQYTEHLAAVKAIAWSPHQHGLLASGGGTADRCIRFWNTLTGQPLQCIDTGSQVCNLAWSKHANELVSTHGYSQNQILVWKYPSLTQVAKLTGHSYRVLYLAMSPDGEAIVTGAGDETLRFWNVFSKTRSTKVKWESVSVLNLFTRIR
UniProt Q9UKB1: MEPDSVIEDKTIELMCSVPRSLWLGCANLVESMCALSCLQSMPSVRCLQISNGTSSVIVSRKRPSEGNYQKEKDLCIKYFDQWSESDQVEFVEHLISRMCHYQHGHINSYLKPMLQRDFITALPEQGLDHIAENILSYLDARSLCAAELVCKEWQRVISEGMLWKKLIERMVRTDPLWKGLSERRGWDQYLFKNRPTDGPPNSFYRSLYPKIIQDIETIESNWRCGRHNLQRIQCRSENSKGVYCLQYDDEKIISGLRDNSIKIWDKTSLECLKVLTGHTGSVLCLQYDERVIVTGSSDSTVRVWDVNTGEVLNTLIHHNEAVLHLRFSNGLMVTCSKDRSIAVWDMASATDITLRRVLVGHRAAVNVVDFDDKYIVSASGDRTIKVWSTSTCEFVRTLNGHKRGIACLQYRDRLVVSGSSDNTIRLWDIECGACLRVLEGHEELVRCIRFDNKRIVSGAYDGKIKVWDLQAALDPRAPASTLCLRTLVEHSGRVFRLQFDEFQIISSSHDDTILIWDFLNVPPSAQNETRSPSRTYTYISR
UniProt Q9C0J9: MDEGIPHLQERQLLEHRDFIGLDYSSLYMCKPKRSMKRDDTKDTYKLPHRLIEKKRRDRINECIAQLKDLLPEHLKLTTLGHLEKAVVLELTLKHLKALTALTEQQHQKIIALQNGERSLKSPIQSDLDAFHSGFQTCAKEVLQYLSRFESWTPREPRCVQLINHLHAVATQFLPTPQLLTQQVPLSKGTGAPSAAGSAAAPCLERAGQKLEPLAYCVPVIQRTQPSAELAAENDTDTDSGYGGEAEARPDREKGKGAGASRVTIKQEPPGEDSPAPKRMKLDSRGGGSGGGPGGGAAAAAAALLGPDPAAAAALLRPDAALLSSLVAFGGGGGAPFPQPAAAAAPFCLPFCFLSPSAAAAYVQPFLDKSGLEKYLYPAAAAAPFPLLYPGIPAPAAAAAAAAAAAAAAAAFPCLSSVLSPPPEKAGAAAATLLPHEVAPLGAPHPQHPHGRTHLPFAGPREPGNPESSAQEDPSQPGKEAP

Key:
FLAG-tagged FBXW5 = FLAG-tagged FBXW5 (UniProt Q969U6); assay: co-IP; HEK293T transfected with FLAG-tagged F-box proteins or the APC/C subunits CDH1 and CDC20; whole-cell extracts immunoprecipitated with anti-FLAG resin, immunoblotting for endogenous SHARP1
FLAG-tagged FBXW9 = FLAG-tagged FBXW9 (UniProt Q5XUX1); assay: as above
[1] = target: FLAG-tagged CDC20 (APC/C subunit) (UniProt Q12834); assay: as above
FLAG-tagged FBXW7 = FLAG-tagged FBXW7 (UniProt Q969H0); assay: as above
FLAG-tagged FBXO17 = target: T1, FLAG-tagged FBXO17 (UniProt Q96EF6); assay: as above
T1 sequence: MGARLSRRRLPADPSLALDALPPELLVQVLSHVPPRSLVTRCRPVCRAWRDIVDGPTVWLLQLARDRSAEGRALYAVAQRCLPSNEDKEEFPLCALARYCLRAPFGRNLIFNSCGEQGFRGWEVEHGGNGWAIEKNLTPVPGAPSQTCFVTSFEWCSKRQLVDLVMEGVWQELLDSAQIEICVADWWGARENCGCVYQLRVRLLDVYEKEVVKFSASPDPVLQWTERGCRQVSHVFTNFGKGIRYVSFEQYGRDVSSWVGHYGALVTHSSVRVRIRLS

FLAG-tagged FBXW2 = target: T2, FLAG-tagged FBXW2 (UniProt Q9UKT8); assay: as above
T2 sequence: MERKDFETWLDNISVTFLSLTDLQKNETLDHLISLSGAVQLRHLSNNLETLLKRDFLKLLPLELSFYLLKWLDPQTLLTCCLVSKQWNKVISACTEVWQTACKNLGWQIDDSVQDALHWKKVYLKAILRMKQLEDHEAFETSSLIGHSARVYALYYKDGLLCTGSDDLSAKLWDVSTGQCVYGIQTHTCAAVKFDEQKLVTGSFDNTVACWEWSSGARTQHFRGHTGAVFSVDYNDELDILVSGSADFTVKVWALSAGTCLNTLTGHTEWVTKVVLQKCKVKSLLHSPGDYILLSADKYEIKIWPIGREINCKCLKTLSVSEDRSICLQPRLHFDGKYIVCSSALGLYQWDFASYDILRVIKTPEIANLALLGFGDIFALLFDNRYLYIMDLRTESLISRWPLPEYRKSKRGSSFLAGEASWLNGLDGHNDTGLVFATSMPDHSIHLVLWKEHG

FLAG-tagged βTrCP1 = FLAG-tagged βTrCP1 (UniProt Q9Y297); assay: as above
[2] = target: FLAG-tagged CDH1 (APC/C subunit) (UniProt Q9UM11); assay: as above
FLAG-tagged FBXO6 = target: T3, FLAG-tagged FBXO6 (UniProt Q9NRD1); assay: as above
T3 sequence: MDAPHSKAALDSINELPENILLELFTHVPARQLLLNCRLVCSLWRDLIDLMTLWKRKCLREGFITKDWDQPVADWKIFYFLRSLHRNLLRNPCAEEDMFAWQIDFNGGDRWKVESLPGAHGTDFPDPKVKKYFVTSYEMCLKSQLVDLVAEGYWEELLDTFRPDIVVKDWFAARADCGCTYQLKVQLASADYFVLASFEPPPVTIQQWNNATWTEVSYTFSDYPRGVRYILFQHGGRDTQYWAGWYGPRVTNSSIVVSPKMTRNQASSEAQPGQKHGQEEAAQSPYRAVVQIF

FLAG-tagged βTrCP2 = FLAG-tagged βTrCP2 (UniProt Q9UKB1); assay: as above
FLAG-tagged FBXW4 = target: T4, FLAG-tagged FBXW4 (UniProt P57775); assay: as above
T4 sequence: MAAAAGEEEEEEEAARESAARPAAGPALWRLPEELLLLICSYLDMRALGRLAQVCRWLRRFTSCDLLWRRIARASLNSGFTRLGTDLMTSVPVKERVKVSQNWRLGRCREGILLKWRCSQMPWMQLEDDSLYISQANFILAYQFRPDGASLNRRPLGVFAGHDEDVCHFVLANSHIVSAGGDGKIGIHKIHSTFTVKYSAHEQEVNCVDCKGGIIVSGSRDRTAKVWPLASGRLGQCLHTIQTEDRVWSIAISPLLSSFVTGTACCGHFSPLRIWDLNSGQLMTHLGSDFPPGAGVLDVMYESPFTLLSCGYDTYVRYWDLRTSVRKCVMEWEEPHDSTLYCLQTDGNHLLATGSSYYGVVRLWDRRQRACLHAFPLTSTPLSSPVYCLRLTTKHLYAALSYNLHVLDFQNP

[3] = target: HA-epitope tagged wild type SHARP1 (UniProt Q9C0J9); assay: co-IP; whole-cell extracts of MDA-MB231 cells (stably expressing HA-tagged SHARP1, or parental) immunoprecipitated with an anti-SHARP1 antibody, immunoblotting; Triton lysis buffer with 250 mM NaCl
[4] = target: endogenous SHARP1 (parental MDA-MB231 cells) (human (endogenous in MDA-MB231)) (UniProt Q9C0J9); assay: as above
[5] = target: HA-epitope tagged SHARP1(S240A/E245A) mutant (UniProt Q9C0J9); assay: co-IP; MDA-MB231 parental cells or cells expressing HA-tagged wild-type SHARP1 or SHARP1(S240A/E245A); whole-cell extracts precipitated with HA resin, immunoblotting for endogenous βTrCP1
[6] = target: HA-epitope tagged wild type SHARP1 (UniProt Q9C0J9); assay: as above
[7] = target: FLAG-HA-epitope tagged SHARP1 (Split and Hairy-related Protein 1) (UniProt Q9C0J9); assay: co-IP; HEK293T transfected with empty vector or FLAG-tagged SHARP1; whole-cell extracts immunoprecipitated with anti-FLAG resin, immunoblotting

endogenous SHARP1 (HEK293T cells) (from UniProt Q9C0J9 1-482)
binding (FLAG-tagged FBXW5): no binding | binding (FLAG-tagged FBXW9): no binding | binding [1]: no binding | binding (FLAG-tagged FBXW7): no binding | binding (FLAG-tagged FBXO17): no binding | binding (FLAG-tagged FBXW2): no binding | binding (FLAG-tagged βTrCP1): binds | binding [2]: no binding | binding (FLAG-tagged FBXO6): no binding | binding (FLAG-tagged βTrCP2): binds | binding (FLAG-tagged FBXW4): no binding

endogenous βTrCP1 (MDA-MB231 cells) (from UniProt Q9Y297 1-605)
binding [3]: binds | binding [4]: binds | binding [5]: no binding | binding [6]: binds

βTrCP1 (endogenous, HEK293T cells) (from UniProt Q9Y297 1-605)
binding [7]: binds
